{
  "source": "the supplement of paper PMC12632987",
  "binders": {"B1": {"name": "traf2_out_14_149_1261 (protein)", "chain": "SATEKKKEALEKALKLFEELAKLLEEAIKAGSNDLDKEKLKKLVDEARKILKEQGFILGHLLAIEELLEKNKEFTKEDLEKLLELARRAAESLKVLREML"}, "B2": {"name": "traf2_out_20_3_2114 (protein)", "chain": "SELEKQLEEELEKAKKLLEEAAKLADPETAKVLKELAKELEESRSLSPTDRLVVVSEIRRRVLLLQQEAEKAGKKELAKVLAEAADALNRAMGLLMKIIE"}, "B3": {"name": "traf2_out_18_3_1917 (protein)", "chain": "SEEKRKEISEKIDEIVDEATAKAREALARGAAEHPEFRAEFERLRADLEAGAGPFGILEALAELFRRAGDEEEAEELEKFLEEKRKKLQELVDEYEKLLK"}, "B4": {"name": "traf2_out_20_38_2013 (protein)", "chain": "SEEEEEKKKEEELIKHAQEAYDKAEAWVAELKAAGLSVEEIAAAAKERVRALLTAHGLEEEAAELVADIDRVLDSPDAERLIVRILARAETLVFQKELQK"}, "B5": {"name": "traf2_out_17_178_1689 (protein)", "chain": "SKEEYRKKISELTDKLIDLTEKTGTELLEMARKDGTISEEELAALEEARRRGSNRTFLALAEKIVPKLKNSEEAQKLLEEFKKEARKLNKEIAEAYEKYE"}, "B6": {"name": "traf2_out_13_95_1221 (protein)", "chain": "SAEANEKLREISNEMLDRSEAVLAALREQLAPHPETAPDMDAIEAALRRQGIRAAIAQLRAAAARHPEVAALYEAAVAELEAIRREAGKRVAEVLKEDEE"}, "B7": {"name": "traf2_out_14_149_1233 (protein)", "chain": "SEEQKKLKAAAEINEEVAKTLEEVLKLLEEGKVEEAKKLLEKAIKELEEKGKKHGITISSLFELEEILELLEKNVEEAKKRAEEARDRAKNASEAFKEMA"}, "B8": {"name": "traf2_out_13_95_1153 (protein)", "chain": "SKELAEKIMEIADKMLDESLKVLEELLKIAKKKGKLVEEVTEAKHLAETRSINEAIHKLKELAKKYPEFKEELDKAIKELEELKRKAGKEVAELIKKEEE"}, "B9": {"name": "traf2_out_20_3_2062 (protein)", "chain": "SELEEELEEELERAEKLLEEAAKLADKETAARLKELLKRLRASRELSYDDRLVVLSEIRRELLELAEEARKRGDEELAKVLEEAAEELNEAMNLTYKIIE"}, "B10": {"name": "traf2_out_5_63_2347 (protein)", "chain": "SEREELTALAKKADKLAREILEAAEAGDEEKAEKLIEEAVKDPELARLVIGILKGEAKYYKLLGNKPEKAKIAEELAERLEKKVKEREEKKAKEAAKKAA"}, "B11": {"name": "traf2_out_18_167_1838 (protein)", "chain": "EEERLARRRELSDRLVELSELKREARAALLALETDPSTVPAELAALRAEAAKIPELAPLVDAAEAALAAGDRAALRAELEELIEEANRLANEVLAEYEAL"}, "B12": {"name": "traf2_out_12_187_969 (protein)", "chain": "SVEEELIRAAKEAIKAALKALKEAAPEDERFKEFLKELEALAKMLEEHPELAADATVAASLVLRAVRLFEAGAPQEEVDAAADAAAAEIAAVAKEAEALK"}, "B13": {"name": "traf2_out_13_95_1044 (protein)", "chain": "SKELAEKIMEIADEMEDRVLALLDAAAAQAADDPELRAVLEEARRLAETRGISEAIHLLREAAAAHPEHRALLEATIAELEAIRREAGRKVAELIKKEKE"}, "B14": {"name": "traf2_out_5_63_2349 (protein)", "chain": "SEREELTELARRADRAVRAALEAAKAGDEERLEAILEELVEDPELARTALGILKGLARYYELLGDKPEEAELARRLAERLEALMAEREAAEAAAAAAAAA"}, "B15": {"name": "traf2_out_6_156_2428 (protein)", "chain": "KVEEILKETLKEIEKLIKELAKASEEKKISYISKIAGTVYKALQKLKELGASVEEIKEFVEKVIKEAEELAKKAGLPESTINLLIGSLQAVGDVAIAEAK"}, "B16": {"name": "traf2_out_13_95_1042 (protein)", "chain": "SAELAEKIMEIADEMLDRTEALLAAAQAEAADDPEAVAVFDEARRLAVTKGISEAIALLRRFQEAHPEHAELAAATIEELEAIRREAGRKVAELIKKEKE"}, "B17": {"name": "traf2_out_17_162_1514 (protein)", "chain": "SALEEELAELEARLEELEKKLEEFEKKLENLKEMSKEELTDLLVEVSEARREARELAERLRKLKPEIGEERAEELIERAEEIAERLQRIANEIYKELEKK"}, "B18": {"name": "traf2_out_18_167_1892 (protein)", "chain": "SEELEKKREEASDRLVELSRARRAMRAVINAIDTDPAAAPAALAAAIAAVADDPETKAFLEAVAKQSLADQRAALEAKADELNKEANKAYEKLEELRKEL"}, "B19": {"name": "traf2_out_1_156_895 (protein)", "chain": "SAADKYAKELHEQLSKPEMRELLSRATDLIIRAKEVAEEAKKNPELKELRERAEKLLKEAKRLASRAINEGLKKKEEIQKELEKLEKELKKLEEELKKKL"}},
  "note": "The full ranking holds about 1,800 sequences; the median of “median log2 fold change of GCK-ALFA target abundance (FLAG IP / Myc IP barcode read proportion)” is about 0.14, and the lowest 2% start at about -0.84. Some of the results follow.",
  "data": [
    {"target": "T1, TRAF2, Q12933", "T1 chain": "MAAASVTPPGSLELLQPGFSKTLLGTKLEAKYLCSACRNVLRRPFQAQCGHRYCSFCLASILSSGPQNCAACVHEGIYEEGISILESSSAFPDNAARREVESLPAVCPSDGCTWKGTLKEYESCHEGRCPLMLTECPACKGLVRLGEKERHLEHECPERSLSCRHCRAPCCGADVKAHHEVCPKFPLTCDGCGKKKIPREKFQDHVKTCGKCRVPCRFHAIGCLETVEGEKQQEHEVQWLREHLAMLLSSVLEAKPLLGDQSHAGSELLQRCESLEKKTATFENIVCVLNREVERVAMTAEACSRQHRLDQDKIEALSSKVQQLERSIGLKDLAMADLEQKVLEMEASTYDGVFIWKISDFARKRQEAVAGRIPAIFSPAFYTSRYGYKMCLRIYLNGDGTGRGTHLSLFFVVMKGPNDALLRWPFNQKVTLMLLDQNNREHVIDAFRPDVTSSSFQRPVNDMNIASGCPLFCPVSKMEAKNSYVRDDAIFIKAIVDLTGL", "experiment": "median log2 fold change of GCK-ALFA target abundance (FLAG IP / Myc IP barcode read proportion) (log2 ratio); each designed protein is fused to an ALFA-tag nanobody in HEK293 cells to bring the named protein to FLAG-tagged glucokinase (GCK); Myc marks an untargeted standard; higher = target protein stabilised (more abundant)", "conditions": "target protein: 3xFLAG-MCP-GCK-ALFA reporter; HEK293 landing pad (RPLP)", "experimental": "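LABEL-seq trans screen in HEK293 landing-pad cells. Each de novo designed 100-aa effector handle, binding the indicated effector (E3 ligase, DUB or autophagy protein), is fused to a constant NbALFA target handle and induced with 2 ug/mL doxycycline. A FLAG-MCP-GCK-ALFA target and a Myc-MCP standard reporter were transfected, and after 48 h circRNA barcodes were recovered by anti-FLAG and anti-Myc IP and sequenced. The value is the median across barcodes (at least 3 per design) of log2(FLAG/Myc read-proportion ratio), with the two transfection replicates pooled. Negative values mean degradation and positive values mean stabilisation of the target.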", "values": [
      {"binder": "B1", "median log2 fold change": 0.166},
      {"binder": "B2", "median log2 fold change": 0.267},
      {"binder": "B3", "median log2 fold change": -0.139},
      {"binder": "B4", "median log2 fold change": 0.298},
      {"binder": "B5", "median log2 fold change": 0.194},
      {"binder": "B6", "median log2 fold change": 0.0973},
      {"binder": "B7", "median log2 fold change": 0.431},
      {"binder": "B8", "median log2 fold change": -0.391},
      {"binder": "B9", "median log2 fold change": 0.219},
      {"binder": "B10", "median log2 fold change": 0.216},
      {"binder": "B11", "median log2 fold change": 0.25},
      {"binder": "B12", "median log2 fold change": 0.383},
      {"binder": "B13", "median log2 fold change": -0.409},
      {"binder": "B14", "median log2 fold change": -0.0109},
      {"binder": "B15", "median log2 fold change": 0.185},
      {"binder": "B16", "median log2 fold change": -0.558},
      {"binder": "B17", "median log2 fold change": 0.34},
      {"binder": "B18", "median log2 fold change": 0.112},
      {"binder": "B19", "median log2 fold change": -0.0191}
    ]}
  ]
}
